From the supplement of paper PMC8728848
Some of the results follow.

Key:
Test in all cases: glycan array binding signal (z-score within array); higher = stronger binding
Conditions in all cases: glycan notation: IUPAC condensed, linker removed
Fuc(a1-3)GlcNAc = biological target: Fuc(a1-3)GlcNAc
How it was run: (§1)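 Columns mapping to the same glycan were averaged after glycan names were converted to IUPAC-condensed notation. The data come from 3228 arrays in the Consortium for Functional Glycomics database, limited to those with an available protein sequence. Binding is reported as a within-array Z-score averaged across arrays of one protein sequence and across linkers.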

[1] = biological target: Fuc(a1-3)[Gal(b1-4)]Glc6S
How it was run: as §1

[2] = biological target: Fuc(a1-3)[Gal(b1-4)]GlcNAc
How it was run: as §1

[3] = biological target: Fuc(a1-3)[Gal(b1-4)]GlcNAc(b1-2)Man
How it was run: as §1

[4] = biological target: Fuc(a1-3)[Gal(b1-4)]GlcNAc(b1-2)Man(a1-3)[Fuc(a1-3)[Gal(b1-4)]GlcNAc(b1-2)Man(a1-6)]Man(b1-4)GlcNAc(b1-4)GlcNAc
How it was run: as §1

[5] = biological target: Fuc(a1-3)[Gal(b1-4)]GlcNAc(b1-2)Man(a1-3)[Fuc(a1-3)[Gal(b1-4)]GlcNAc(b1-2)Man(a1-6)]Man(b1-4)GlcNAc(b1-4)[Fuc(a1-6)]GlcNAc
How it was run: as §1

[6] = biological target: Fuc(a1-3)[Gal(b1-4)]GlcNAc(b1-3)Gal(b1-3)[Fuc(a1-4)]GlcNAc
How it was run: as §1

[7] = biological target: Fuc(a1-3)[Gal(b1-4)]GlcNAc(b1-3)Gal(b1-4)[Fuc(a1-3)]GlcNAc
How it was run: as §1

[8] = biological target: Fuc(a1-3)[Gal(b1-4)]GlcNAc(b1-3)Gal(b1-4)[Fuc(a1-3)]GlcNAc(b1-3)Gal(b1-4)[Fuc(a1-3)]GlcNAc
How it was run: as §1

[9] = biological target: Fuc(a1-3)[Gal(b1-4)]GlcNAc(b1-3)GalNAc
How it was run: as §1

[10] = biological target: Fuc(a1-3)[Gal(b1-4)]GlcNAc(b1-6)GalNAc
How it was run: as §1

[11] = biological target: Fuc(a1-3)[Gal(b1-4)]GlcNAc(b1-6)[Gal(b1-3)GlcNAc(b1-3)]Gal(b1-4)Glc
How it was run: as §1

[12] = biological target: Fuc(a1-3)[Gal(b1-4)]GlcNAc6S
How it was run: as §1

[13] = biological target: Fuc(a1-3)[Gal3S(b1-4)]Glc
How it was run: as §1

[14] = biological target: Fuc(a1-3)[Gal3S(b1-4)]GlcNAc
How it was run: as §1

[15] = biological target: Fuc(a1-3)[Gal3S(b1-4)]GlcNAc6S
How it was run: as §1

[16] = biological target: Fuc(a1-3)[GalNAc(b1-4)]GlcNAc
How it was run: as §1

[17] = biological target: Fuc(a1-3)[GalNAc(b1-4)]GlcNAc6S
How it was run: as §1

Fuc(a1-4)GlcNAc = biological target: Fuc(a1-4)GlcNAc
How it was run: as §1

Fuc(b1-3)GlcNAc = biological target: Fuc(b1-3)GlcNAc
How it was run: as §1

Gal(a1-2)Gal = biological target: Gal(a1-2)Gal
How it was run: as §1

Gal(a1-3)Gal = biological target: Gal(a1-3)Gal
How it was run: as §1

Gal(a1-3)Gal(b1-3)GlcNAc = biological target: Gal(a1-3)Gal(b1-3)GlcNAc
How it was run: as §1

[18] = biological target: Gal(a1-3)Gal(b1-3)GlcNAc(b1-2)Man
How it was run: as §1

[19] = biological target: Gal(a1-3)Gal(b1-3)GlcNAc(b1-2)Man(a1-3)[Gal(a1-3)Gal(b1-3)GlcNAc(b1-2)Man(a1-6)]Man(b1-4)GlcNAc(b1-4)GlcNAc
How it was run: as §1

[20] = biological target: Gal(a1-3)Gal(b1-3)GlcNAc(b1-3)GalNAc
How it was run: as §1

[21] = biological target: Gal(a1-3)Gal(b1-3)GlcNAc(b1-6)GalNAc
How it was run: as §1

[22] = biological target: Gal(a1-3)Gal(b1-3)[Fuc(a1-4)]GlcNAc(b1-2)Man(a1-3)[Gal(a1-3)Gal(b1-3)[Fuc(a1-4)]GlcNAc(b1-2)Man(a1-6)]Man(b1-4)GlcNAc(b1-4)GlcNAc
How it was run: as §1

Gal(a1-3)Gal(b1-4)Glc = biological target: Gal(a1-3)Gal(b1-4)Glc
How it was run: as §1

Gal(a1-3)Gal(b1-4)GlcNAc = biological target: Gal(a1-3)Gal(b1-4)GlcNAc
How it was run: as §1

B1: PX9961V-pdi-562-26-562 (Parabacteroides distasonis) (protein)
chain: EIFSEITTDNYYQNSNNIYAALVNNYAKAFSTGWSDARYFLQEVTADQLMIPTRGKHGYNGGEYVRLHEHKWTVEENFVYNGWAAPFQGIALCNNTLSDFENLDFSTFKLTEETKNEYIAELRALRVWNYMFLIDFFRHVPIVTDIEEVKAQSTPLEVFNFMESELLAILPDLPKNRGVSRFDQAGVASILVRLYLNAEKWIGISKYDECEQMAQAILDGKYGEYSIDPDYRGPFRSGINGYRSKENIMEFAIKKNYFEASWLYNMWMHYQDRYSLDNDWQGWNGGNLAPSRDLYGNLYQDKLGMPFEKFPDGDIRKKAFRVISNDGDYEGFFLMGTQYKFDYEKGYGFTDEVITGTEEYNGKPLVYVDQVGRFSEGETGLAKGSHVIYGEENTGYRLIKFPWLPQSKDLFQMNSIPEIRLAEIYYSLAECKYRSGDKIGAARLLDVVRKRYYKAEDWSKFSYESNISKLTDDEFVDELGREFIGERHRRIDLIRWNRFSEGAWWDKTPDATNQDVFPIPYRALNANPLLKQTTAGF
**Q.** With B1 as the binder, how does the “glycan array binding signal (z-score)” value (Fuc(a1-3)GlcNAc) read?
**A.** -0.508

**Q.** And the “glycan array binding signal (z-score)” value [1]?
**A.** 0.472

**Q.** What about the “glycan array binding signal (z-score)” value [2] of the same binder?
**A.** -0.465

**Q.** And the “glycan array binding signal (z-score)” value [3]?
**A.** -0.333

**Q.** And the “glycan array binding signal (z-score)” value [4]?
**A.** 0.569

**Q.** What about the “glycan array binding signal (z-score)” value [5] of the same binder?
**A.** 1.49

**Q.** What about the “glycan array binding signal (z-score)” value [6] of the same binder?
**A.** -0.435

**Q.** What about the “glycan array binding signal (z-score)” value [7] of the same binder?
**A.** 0.082

**Q.** What about the “glycan array binding signal (z-score)” value [8] of the same binder?
**A.** -0.325

**Q.** And the “glycan array binding signal (z-score)” value [9]?
**A.** 0.334

**Q.** And the “glycan array binding signal (z-score)” value [10]?
**A.** -0.657

**Q.** And the “glycan array binding signal (z-score)” value [11]?
**A.** -0.227

**Q.** What about the “glycan array binding signal (z-score)” value [12] of the same binder?
**A.** 0.861

**Q.** What about the “glycan array binding signal (z-score)” value [13] of the same binder?
**A.** -0.74

**Q.** And the “glycan array binding signal (z-score)” value [14]?
**A.** -0.427

**Q.** And the “glycan array binding signal (z-score)” value [15]?
**A.** -0.418

**Q.** And the “glycan array binding signal (z-score)” value [16]?
**A.** -0.613

**Q.** And the “glycan array binding signal (z-score)” value [17]?
**A.** -0.368

**Q.** And the “glycan array binding signal (z-score)” value (Fuc(a1-4)GlcNAc)?
**A.** -0.596

**Q.** What about the “glycan array binding signal (z-score)” value (Fuc(b1-3)GlcNAc) of the same binder?
**A.** -0.328

**Q.** What about the “glycan array binding signal (z-score)” value (Gal(a1-2)Gal) of the same binder?
**A.** -0.474

**Q.** What about the “glycan array binding signal (z-score)” value (Gal(a1-3)Gal) of the same binder?
**A.** 0

**Q.** And the “glycan array binding signal (z-score)” value (Gal(a1-3)Gal(b1-3)GlcNAc)?
**A.** 0.646

**Q.** What about the “glycan array binding signal (z-score)” value [18] of the same binder?
**A.** -0.526

**Q.** What about the “glycan array binding signal (z-score)” value [19] of the same binder?
**A.** 2.03

**Q.** And the “glycan array binding signal (z-score)” value [20]?
**A.** -0.36

**Q.** What about the “glycan array binding signal (z-score)” value [21] of the same binder?
**A.** 0.883

**Q.** And the “glycan array binding signal (z-score)” value [22]?
**A.** 3.94

**Q.** What about the “glycan array binding signal (z-score)” value (Gal(a1-3)Gal(b1-4)Glc) of the same binder?
**A.** -0.017

**Q.** And the “glycan array binding signal (z-score)” value (Gal(a1-3)Gal(b1-4)GlcNAc)?
**A.** 0.068
